The values below come from article PMC4336329 (PLoS ONE, 2015).

Among all 310,000 compounds or so, about 14,000 (4.5%) showed an effect of 50% or more. The effect is printed as a negative number. Some of the results follow.
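Also: peak tail current of the secondary pulse compared with the same well before compound.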

human ether-à-go-go-related gene (hERG) potassium channel, sequence (Q12809 whole entry, looked up): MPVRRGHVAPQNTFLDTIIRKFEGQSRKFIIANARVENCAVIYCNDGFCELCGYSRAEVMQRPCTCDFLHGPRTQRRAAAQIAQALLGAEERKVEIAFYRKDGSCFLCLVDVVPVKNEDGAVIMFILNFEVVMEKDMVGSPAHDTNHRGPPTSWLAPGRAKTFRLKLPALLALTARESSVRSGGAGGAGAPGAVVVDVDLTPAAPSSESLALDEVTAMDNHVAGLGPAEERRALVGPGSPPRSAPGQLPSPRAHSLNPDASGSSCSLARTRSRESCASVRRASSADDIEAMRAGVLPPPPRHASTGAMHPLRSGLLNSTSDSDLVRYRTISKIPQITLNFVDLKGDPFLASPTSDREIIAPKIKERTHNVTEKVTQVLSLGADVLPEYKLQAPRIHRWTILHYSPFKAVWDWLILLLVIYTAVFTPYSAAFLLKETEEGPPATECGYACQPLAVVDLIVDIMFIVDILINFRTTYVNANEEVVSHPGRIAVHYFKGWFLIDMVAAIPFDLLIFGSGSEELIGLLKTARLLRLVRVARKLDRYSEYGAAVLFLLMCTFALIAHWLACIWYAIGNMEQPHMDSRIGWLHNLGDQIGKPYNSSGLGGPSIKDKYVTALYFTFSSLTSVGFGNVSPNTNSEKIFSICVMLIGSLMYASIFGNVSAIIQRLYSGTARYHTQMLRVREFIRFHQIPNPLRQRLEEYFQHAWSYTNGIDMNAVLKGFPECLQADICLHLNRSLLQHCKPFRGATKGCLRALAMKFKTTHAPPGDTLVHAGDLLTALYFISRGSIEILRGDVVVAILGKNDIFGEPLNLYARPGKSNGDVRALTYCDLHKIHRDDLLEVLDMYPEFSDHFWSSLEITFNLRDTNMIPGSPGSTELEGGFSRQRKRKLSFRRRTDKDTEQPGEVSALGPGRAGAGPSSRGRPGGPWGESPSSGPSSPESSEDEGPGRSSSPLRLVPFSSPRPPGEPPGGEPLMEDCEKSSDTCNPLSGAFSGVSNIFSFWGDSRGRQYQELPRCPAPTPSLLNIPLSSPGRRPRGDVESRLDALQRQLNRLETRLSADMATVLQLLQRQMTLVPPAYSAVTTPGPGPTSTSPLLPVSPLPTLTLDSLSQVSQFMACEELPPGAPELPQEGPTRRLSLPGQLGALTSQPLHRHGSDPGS

The assay concerns the target human ether-à-go-go-related gene (hERG) potassium channel (human, UniProt Q12809). The experiment in a line: primary screen, population patch clamp on CHO cells stably expressing hERG.
Turning to `Cc1ccnc(NC(=O)c2ccc(Cl)c(S(=O)(=O)N3CCCCC3)c2)c1`, the “hERG current change (%, negative = inhibition) at 10uM” value is given as -79.1%.

As to `Cc1ccc(N2C(=O)N(CC(=O)Nc3ccc(C)c(C)c3[N+](=O)[O-])C(=O)C2C)cc1` (stereo not drawn), the “hERG current change (%, negative = inhibition) at 10uM” value was -1.46%.

On to `C=CCCC(=O)N1CCC(Oc2cccc(C(=O)NCc3ccccn3)c2)CC1`, for which the “hERG current change (%, negative = inhibition) at 10uM” value is -17.4%.

For `C[C@]12CC3CC(N)(C1)C[C@@](C)(C3)C2.Cl`, the “hERG current change (%, negative = inhibition) at 10uM” value was -0.247%.

For `C/C=C(\C)C(=O)Nc1cccc(C2=NOC3(C2)C[C@H](C(N)=O)N(C(=O)CC#N)C3)c1` (stereo partly drawn), the “hERG current change (%, negative = inhibition) at 10uM” value is 17%.

In the case of `Cc1nnn(C23CC4CC(CC(C(=O)NN)(C4)C2)C3)n1`, the “hERG current change (%, negative = inhibition) at 10uM” value was determined as 12.5%.

In the case of `CN1CCC/C1=C1/C(=O)N(c2ccccc2)N=C1NC(=O)Nc1cccc(Cl)c1`, the “hERG current change (%, negative = inhibition) at 10uM” value turned out to be 16.1%.

For the molecule `CCC1(C)CN(S(=O)(=O)OCC(Cl)(Cl)Cl)C(=O)N1` (stereo not drawn), the “hERG current change (%, negative = inhibition) at 10uM” value turned out to be 3.12%.

As to `O=C(Nc1ccc(F)c(Cl)c1)C1CC(=O)n2c(nc3ccccc32)N1` (stereo not drawn), the “hERG current change (%, negative = inhibition) at 10uM” value was determined as 10.7%.

As for `CCOc1cccc(N2C(=O)CC(NCc3ccc(S(N)(=O)=O)cc3)C2=O)c1` (stereo not drawn), the “hERG current change (%, negative = inhibition) at 10uM” value is on record as -0.392%.

As for `CSCC[C@H](NS(=O)(=O)c1ccc(C)cc1)C(=O)N1CCC(C(=O)N[C@@H](Cc2ccccc2)C(=O)O)CC1`, the “hERG current change (%, negative = inhibition) at 10uM” value is recorded as -5.26%.

Regarding `CCN1/C(=C/C(=O)c2ccco2)Sc2ccccc21`, the “hERG current change (%, negative = inhibition) at 10uM” value is recorded as 8.09%.

As to `CCN(CC(=O)Nc1cccc(OC)c1)C(=O)c1cnc(Cl)c(Cl)c1`, the “hERG current change (%, negative = inhibition) at 10uM” value is reported as 5.79%.

With `O=C(COC(=O)c1ccc(Br)cc1)NCCC1=CCCCC1`, the “hERG current change (%, negative = inhibition) at 10uM” value is listed as -4.48%.

Regarding `Nc1nonc1-n1nnc(C(=O)N/N=C/c2cc(Br)ccc2O)c1CSC1=NCCS1`, the “hERG current change (%, negative = inhibition) at 10uM” value was 9.14%.

For the molecule `CCOc1ccc(N2C(=O)CC(N(CCc3ccc(OC)cc3)C(=O)/C=C/C(=O)O)C2=O)cc1` (stereo not drawn), the “hERG current change (%, negative = inhibition) at 10uM” value is 41.8%.

With `Cc1cc(-c2nc(C)c(C(=O)NNC(=O)NC(C)C)s2)no1`, the “hERG current change (%, negative = inhibition) at 10uM” value stood at 2.44%.

Take `COc1ccc2ccccc2c1C1NC(=O)NC(C)=C1[N+](=O)[O-]` (stereo not drawn): the “hERG current change (%, negative = inhibition) at 10uM” value worked out at 0.527%.

As to `Cc1cccc(OCC(=O)Nc2nnc(S(=O)(=O)N3CCC(C)CC3)s2)c1`, the “hERG current change (%, negative = inhibition) at 10uM” value is -0.769%.

Regarding `CC(=O)c1cc2c(cc1NC(=O)c1c(-c3ccccc3)noc1C)OCO2`, the “hERG current change (%, negative = inhibition) at 10uM” value turned out to be 13.7%.

For `CC(=O)N1CCc2cc(S(=O)(=O)NCCCN3CCN(Cc4ccccc4)CC3)ccc21`, the “hERG current change (%, negative = inhibition) at 10uM” value is -16.6%.

As for `Cc1cccc(NC(=O)N2CCC(NC(=O)c3ccccc3C)CC2)c1`, the “hERG current change (%, negative = inhibition) at 10uM” value is reported as -15.2%.

In the case of `S=C(NCCN1CCOCC1)Nc1cccc2ccccc12`, the “hERG current change (%, negative = inhibition) at 10uM” value amounted to 0.426%.

On to `CN(C)c1nc(OCCNC(=O)Nc2ccccc2)nc(N2CCCCC2)n1`, for which the “hERG current change (%, negative = inhibition) at 10uM” value is given as 0.123%.

Regarding `Cn1c(=NC(=O)c2cnccn2)sc2ccccc21`, the “hERG current change (%, negative = inhibition) at 10uM” value was 6.1%.

For `CCOC(=O)c1c(NC(=O)CSc2nccc(=O)[nH]2)sc(C)c1C`, the “hERG current change (%, negative = inhibition) at 10uM” value turned out to be 13.7%.

With `OC1CN=C2CCCc3c2n(c2ccc(Cl)cc32)C1` (stereo not drawn), the “hERG current change (%, negative = inhibition) at 10uM” value was -72.3%.

In the case of `CCN1CCCC1CNC(=O)Cn1nc(C)n2nc(-c3ccccc3)cc2c1=O` (stereo not drawn), the “hERG current change (%, negative = inhibition) at 10uM” value is reported as -23.3%.

On to `CCOc1ncccc1C(=O)OCC(=O)NCCc1ccccc1`, for which the “hERG current change (%, negative = inhibition) at 10uM” value was determined as 6.79%.

With `COc1cccc(CN2CCN(Cc3nc(-c4cccs4)oc3C)CC2CCO)c1` (stereo not drawn), the “hERG current change (%, negative = inhibition) at 10uM” value is on record as -57%.

Take `c1ccc(N2CCN(C3CCSC3)CC2)cc1` (stereo not drawn): the “hERG current change (%, negative = inhibition) at 10uM” value is -5.5%.

Turning to `Cc1cc(C)n(C(=O)CNC(=O)c2ccccc2Br)n1`, the “hERG current change (%, negative = inhibition) at 10uM” value is given as 18.6%.

In the case of `Cc1[nH]c(C)c(S(=O)(=O)NCc2ccc(F)cc2)c1C(=O)N1CCCC1`, the “hERG current change (%, negative = inhibition) at 10uM” value stood at 14.2%.

In the case of `COc1ccc(OCCNC(=O)C(c2ccccc2)c2ccccc2)cc1`, the “hERG current change (%, negative = inhibition) at 10uM” value stood at 2.86%.

For `COc1ccc(CN2CCCCC2C)cc1C` (stereo not drawn), the “hERG current change (%, negative = inhibition) at 10uM” value is listed as -18.8%.

Regarding `COCCCNC(=O)C(=O)C1C(=O)Nc2ccccc21` (stereo not drawn), the “hERG current change (%, negative = inhibition) at 10uM” value came out at 24.9%.

For the molecule `O=C(Nc1cc(S(=O)(=O)N2CCCCC2)ccc1Cl)c1ccc(F)cc1`, the “hERG current change (%, negative = inhibition) at 10uM” value was -8.99%.

Consider `CSc1cccc(NC(=O)c2cnccn2)c1`, for which the “hERG current change (%, negative = inhibition) at 10uM” value is -4.38%.

As for `Cc1ccc(S(=O)(=O)NC(=O)Nc2ccc(F)c(F)c2)cc1`, the “hERG current change (%, negative = inhibition) at 10uM” value turned out to be 18.1%.

Regarding `O=C(CCN1CCOCC1)Nc1ccccc1`, the “hERG current change (%, negative = inhibition) at 10uM” value turned out to be 12.3%.

Take `Cc1c(-c2cccc(Cl)c2)nc2ccccc2c1C(=O)N1CCC2(CC1)OCCO2`: the “hERG current change (%, negative = inhibition) at 10uM” value is -47.4%.

Turning to `CC(C)CC(=O)N=C1SC2CS(=O)(=O)CC2N1CCc1ccccc1` (stereo not drawn), the “hERG current change (%, negative = inhibition) at 10uM” value is 0.376%.

As to `CC(=O)N1CCc2cc(N=NC3=C(O)CCCC3=O)ccc21`, the “hERG current change (%, negative = inhibition) at 10uM” value came to 9.61%.

Take `CCOC(=O)N1CCN(Cc2nc3c(c(=O)[nH]c(=O)n3C)n2CCCc2ccccc2)CC1`: the “hERG current change (%, negative = inhibition) at 10uM” value is -37.5%.

Take `COn1c(SCc2cccnc2)nc2ccccc2c1=O`: the “hERG current change (%, negative = inhibition) at 10uM” value was -14.2%.

In the case of `COC(=O)C1=C(C(=O)OC)[C@@H]2N(C)c3ccccc3[C@@]23C[C@@H](C(=O)OC)N(C(=O)C2CCC2)C3=N1`, the “hERG current change (%, negative = inhibition) at 10uM” value is on record as -29.7%.

Take `CCCn1c(=O)c2c(C(F)(F)F)cc(-c3cccs3)nc2n(CCC)c1=O`: the “hERG current change (%, negative = inhibition) at 10uM” value is 6.84%.

Consider `O=P(OCC(F)(F)C(F)F)(N1CCOCC1)N1CCOCC1`, for which the “hERG current change (%, negative = inhibition) at 10uM” value turned out to be 4.48%.

With `O=C(NNc1nc2cc3c(cc2s1)OCCO3)c1ccccc1`, the “hERG current change (%, negative = inhibition) at 10uM” value is -5.6%.

Turning to `Cc1ccc(NC(=O)CCc2c(C)nc3ncnn3c2C)nc1`, the “hERG current change (%, negative = inhibition) at 10uM” value is -11.3%.

`Cc1oc(-c2cccc(Cl)c2)nc1CSCC(=O)O`: the “hERG current change (%, negative = inhibition) at 10uM” value was 14%.

With `CC1CN(C(=O)/C(=C/c2ccco2)NC(=O)c2ccccc2)CC(C)O1` (stereo not drawn), the “hERG current change (%, negative = inhibition) at 10uM” value worked out at 20.3%.

For the molecule `COc1ccc(NC(=O)C2CCN(C(=O)c3ccccc3)CC2)cc1OC`, the “hERG current change (%, negative = inhibition) at 10uM” value was -17.6%.

Take `CCOc1ccc(-n2c(N)c(C(=O)N3CCN(C)CC3)sc2=S)cc1`: the “hERG current change (%, negative = inhibition) at 10uM” value is on record as -51%.

For the molecule `CC1=NN(c2ccccc2)C(=O)/C1=C/N(C)C`, the “hERG current change (%, negative = inhibition) at 10uM” value worked out at 6.17%.

Regarding `COc1ccc(CCC(=O)Nc2ccc(OC)c(S(=O)(=O)N3CCCCC3)c2)cc1`, the “hERG current change (%, negative = inhibition) at 10uM” value is -4.43%.

Regarding `Cn1c(=O)[nH]c(=O)c2c1nc(NC1CCCC1)n2Cc1ccccc1`, the “hERG current change (%, negative = inhibition) at 10uM” value came to 15.8%.
